Experimental data: article PMC10163088
Results are given in words; binding and its absence hold for the method and conditions named. Binding seen in cells or lysates may run through a third protein. Some results given as binding are weak or reduced against the parent protein; the word gives no strength. For part of these data: Sequences can lack the tags named with a protein.

Protein sequences, listed by entry. Tags and fused reporters are not part of them.
UniProt P26343: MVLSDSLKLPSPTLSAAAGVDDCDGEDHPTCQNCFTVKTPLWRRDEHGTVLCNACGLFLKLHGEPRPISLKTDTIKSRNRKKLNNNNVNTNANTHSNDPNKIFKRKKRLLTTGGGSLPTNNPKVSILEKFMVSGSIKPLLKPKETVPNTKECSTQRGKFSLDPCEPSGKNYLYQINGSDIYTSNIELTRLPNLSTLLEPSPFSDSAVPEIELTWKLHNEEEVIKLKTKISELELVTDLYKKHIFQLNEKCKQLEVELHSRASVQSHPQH

T1: GST-Cti6 (full-length) (S. cerevisiae) (UniProt Q08923)
T1 sequence: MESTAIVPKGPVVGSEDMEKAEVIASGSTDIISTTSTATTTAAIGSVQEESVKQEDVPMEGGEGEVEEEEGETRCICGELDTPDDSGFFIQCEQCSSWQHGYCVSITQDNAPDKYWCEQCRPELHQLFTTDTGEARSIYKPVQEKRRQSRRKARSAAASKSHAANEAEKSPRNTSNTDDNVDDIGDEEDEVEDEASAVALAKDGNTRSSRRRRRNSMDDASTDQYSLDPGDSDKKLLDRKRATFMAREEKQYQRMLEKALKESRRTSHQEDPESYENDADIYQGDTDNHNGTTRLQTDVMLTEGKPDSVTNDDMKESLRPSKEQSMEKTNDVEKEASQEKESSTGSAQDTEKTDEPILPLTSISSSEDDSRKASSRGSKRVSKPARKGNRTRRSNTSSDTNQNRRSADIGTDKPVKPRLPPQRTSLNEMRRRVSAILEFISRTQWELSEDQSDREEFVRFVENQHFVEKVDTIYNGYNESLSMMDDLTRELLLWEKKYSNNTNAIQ

T2: GST-Ure2 (full-length) (S. cerevisiae) (UniProt P23202)
T2 sequence: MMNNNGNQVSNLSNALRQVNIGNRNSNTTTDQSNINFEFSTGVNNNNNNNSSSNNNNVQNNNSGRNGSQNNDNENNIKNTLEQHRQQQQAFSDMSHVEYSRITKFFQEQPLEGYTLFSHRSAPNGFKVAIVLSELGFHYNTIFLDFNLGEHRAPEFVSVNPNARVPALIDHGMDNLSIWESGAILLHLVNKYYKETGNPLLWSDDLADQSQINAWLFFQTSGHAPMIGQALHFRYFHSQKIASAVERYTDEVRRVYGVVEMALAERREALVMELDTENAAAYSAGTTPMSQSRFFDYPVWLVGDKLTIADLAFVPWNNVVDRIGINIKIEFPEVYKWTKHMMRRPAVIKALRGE

T3: GST-Yox1 (full-length) (S. cerevisiae) (UniProt P34161)
T3 sequence: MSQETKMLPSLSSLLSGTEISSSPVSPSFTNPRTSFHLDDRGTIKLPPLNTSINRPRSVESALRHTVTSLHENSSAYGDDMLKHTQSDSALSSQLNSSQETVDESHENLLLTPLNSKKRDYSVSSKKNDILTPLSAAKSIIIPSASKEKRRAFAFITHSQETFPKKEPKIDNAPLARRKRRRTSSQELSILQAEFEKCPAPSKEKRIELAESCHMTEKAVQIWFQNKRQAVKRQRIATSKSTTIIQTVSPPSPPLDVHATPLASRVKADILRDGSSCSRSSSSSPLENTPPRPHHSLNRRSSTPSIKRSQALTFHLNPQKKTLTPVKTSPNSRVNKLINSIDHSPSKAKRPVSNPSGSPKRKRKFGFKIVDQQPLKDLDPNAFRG

T4: GST-Gal80 (full-length) (S. cerevisiae) (UniProt P04387)
T4 sequence: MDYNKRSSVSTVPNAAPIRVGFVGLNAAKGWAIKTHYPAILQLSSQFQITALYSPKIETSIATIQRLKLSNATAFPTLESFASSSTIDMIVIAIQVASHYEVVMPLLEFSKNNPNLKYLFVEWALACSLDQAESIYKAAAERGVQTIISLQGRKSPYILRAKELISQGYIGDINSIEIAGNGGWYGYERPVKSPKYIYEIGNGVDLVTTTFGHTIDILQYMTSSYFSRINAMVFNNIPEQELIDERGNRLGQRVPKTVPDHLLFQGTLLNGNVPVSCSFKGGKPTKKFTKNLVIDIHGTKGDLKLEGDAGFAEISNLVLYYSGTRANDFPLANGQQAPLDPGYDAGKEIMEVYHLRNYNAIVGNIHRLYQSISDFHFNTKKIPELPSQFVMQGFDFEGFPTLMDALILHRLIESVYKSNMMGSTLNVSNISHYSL

T5: GST-Sko1 (full-length) (S. cerevisiae), Q02100
T5 chain: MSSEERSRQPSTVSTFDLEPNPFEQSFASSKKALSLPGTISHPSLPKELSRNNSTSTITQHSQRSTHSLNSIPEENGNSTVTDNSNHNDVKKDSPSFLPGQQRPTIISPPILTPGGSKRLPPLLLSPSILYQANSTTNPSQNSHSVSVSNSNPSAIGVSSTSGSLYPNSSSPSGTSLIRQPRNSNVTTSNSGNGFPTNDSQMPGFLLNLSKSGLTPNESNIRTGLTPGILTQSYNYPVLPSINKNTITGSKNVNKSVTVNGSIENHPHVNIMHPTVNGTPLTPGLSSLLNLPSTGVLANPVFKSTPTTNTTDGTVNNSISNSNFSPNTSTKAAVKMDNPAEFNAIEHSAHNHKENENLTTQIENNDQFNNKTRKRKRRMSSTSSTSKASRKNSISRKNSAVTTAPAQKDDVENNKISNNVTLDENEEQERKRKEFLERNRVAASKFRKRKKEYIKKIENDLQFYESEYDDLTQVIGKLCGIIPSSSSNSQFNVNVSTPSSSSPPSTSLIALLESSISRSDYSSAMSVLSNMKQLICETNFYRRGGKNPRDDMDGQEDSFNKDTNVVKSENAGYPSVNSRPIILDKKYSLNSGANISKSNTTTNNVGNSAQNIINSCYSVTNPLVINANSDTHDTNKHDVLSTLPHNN

T6: GST-Whi5 (full-length) (S. cerevisiae) (UniProt Q12416)
T6 sequence: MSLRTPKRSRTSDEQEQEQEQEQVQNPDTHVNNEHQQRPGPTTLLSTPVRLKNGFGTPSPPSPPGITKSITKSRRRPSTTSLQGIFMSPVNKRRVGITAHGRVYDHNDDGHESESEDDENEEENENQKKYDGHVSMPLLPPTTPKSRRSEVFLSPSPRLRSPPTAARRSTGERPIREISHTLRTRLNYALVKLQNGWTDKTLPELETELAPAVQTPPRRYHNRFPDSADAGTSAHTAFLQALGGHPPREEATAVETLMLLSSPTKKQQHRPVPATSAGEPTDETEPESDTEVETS


Columns and labels:
[1] = target: T1, GST-Cti6 (full-length) (S. cerevisiae); test: pull-down; GST fusions of repressors (full-length or length variants) immobilised on GSH sepharose, incubated with bacterial total protein extracts containing HA-tagged Sin3, Cyc8 or Tup1 (or Tup1 length variants); elution with free GSH, anti-HA blot (Figs. 1, 3, 4, 5); only the target purified
[2] = target: T2, GST-Ure2 (full-length) (S. cerevisiae); test: as above
[3] = target: GST-Dal80 (full-length) (S. cerevisiae) (UniProt P26343); test: as above
[4] = target: T3, GST-Yox1 (full-length) (S. cerevisiae); test: as above
[5] = target: T4, GST-Gal80 (full-length) (S. cerevisiae); test: as above
[6] = target: T5, GST-Sko1 (full-length) (S. cerevisiae), …; test: as above; conditions: remark: other sources report otherwise
[7] = target: T6, GST-Whi5 (full-length) (S. cerevisiae); test: pull-down; GST fusions of full-length repressors immobilised on GSH sepharose, incubated with protein extracts from yeast transformants containing epitope-tagged Sin3 length variants; anti-HA blot (Fig. 2); only the target purified

Row | Molecule | binding [1] | binding [2] | binding [3] | binding [4] | binding [5] | binding [6] | binding [7]
1 | HA3-Tup1 length variant aa 340-713 (seven WD40 repeats; pVS2) (from UniProt P16649 340-713) (domain or fragment) | binds | binds | binds | binds | binds |  | 
2 | HA3-Tup1 (full-length; pFK76), P16649 1-713 (protein) MTASVSNTQNKLNELLDAIRQEFLQVSQEANTYRLQNQKDYDFKMNQQLAEMQQIRNTVYELELTHRKMKDAYEEEIKHLKLGLEQRDHQIASLTVQQQRQQQQQQQVQQHLQQQQQQLAAASASVPVAQQPPATTSATATPAANTTTGSPSAFPVQASRPNLVGSQLPTTTLPVVSSNAQQQLPQQQLQQQQLQQQQPPPQVSVAPLSNTAINGSPTSKETTTLPSVKAPESTLKETEPENNNTSKINDTGSATTATTTTATETEIKPKEEDATPASLHQDHYLVPYNQRANHSKPIPPFLLDLDSQSVPDALKKQTNDYYILYNPALPREIDVELHKSLDHTSVVCCVKFSNDGEYLATGCNKTTQVYRVSDGSLVARLSDDSAANNHRNSITENNTTTSTDNNTMTTTTTTTITTTAMTSAAELAKDVENLNTSSSPSSDLYIRSVCFSPDGKFLATGAEDRLIRIWDIENRKIVMILQGHEQDIYSLDYFPSGDKLVSGSGDRTVRIWDLRTGQCSLTLSIEDGVTTVAVSPGDGKYIAAGSLDRAVRVWDSETGFLVERLDSENESGTGHKDSVYSVVFTRDGQSVVSGSLDRSVKLWNLQNANNKSDSKTPNSGTCEVTYIGHKDFVLSVATTQNDEYILSGSKDRGVLFWDKKSGNPLLMLQGHRNSVISVAVANGSPLGPEYNVFATGSGDCKARIWKYKKIAPN |  |  |  |  |  | binds | 
3 | epitope-tagged Sin3 length variant 801-1100 (HID1; pYJ89) (domain or fragment, UniProt P22579 801-1100) NQYEETLFKIEEERHEYDFYIESNLRTIQCLETIVNKIENMTENEKANFKLPPGLGHTSMTIYKKVIRKVYDKERGFEIIDALHEHPAVTAPVVLKRLKQKDEEWRRAQREWNKVWRELEQKVFFKSLDHLGLTFKQADKKLLTTKQLISEISSIKVDQTNKKIHWLTPKPKSQLDFDFPDKNIFYDILCLADTFITHTTAYSNPDKERLKDLLKYFISLFFSISFEKIEESLYSHKQNVSESSGSDDGSSIASRKRPYQQEMSLLDILHRSRYQKLKRSNDEDGKVPQLSEPPEEEPNT |  |  |  |  |  |  | binds

Second part, the molecule after the results:

Row | binding [1] | binding [2] | binding [3] | binding [4] | binding [5] | binding [6] | binding [7] | Molecule
4 | binds | binds | binds | binds | binds |  |  | HA3-Tup1 length variant aa 599-713 (WD40 repeats 6 and 7; pVS5) (from UniProt P16649 599-713) (domain or fragment)
5 | no binding | no binding | no binding | no binding | no binding |  |  | HA3-Tup1 length variant aa 1-339 (no WD40 repeats; pVS1) (from UniProt P16649 1-339) (domain or fragment)
6 |  |  |  |  |  |  | binds | epitope-tagged Sin3 length variant 601-950 (PAH3 + HID1; pYJ90) (domain or fragment, UniProt P22579 601-950) TSLTEQYAPSSIQHQQQHPQSISPIANTQYGDIPVRPEIDLDPSIVPVVPEPTEPIENNISLNEEVTFFEKAKRYIGNKHLYTEFLKILNLYSQDILDLDDLVEKVDFYLGSNKELFTWFKNFVGYQEKTKCIENIVHEKHRLDLDLCEAFGPSYKRLPKSDTFMPCSGRDDMCWEVLNDEWVGHPVWASEDSGFIAHRKNQYEETLFKIEEERHEYDFYIESNLRTIQCLETIVNKIENMTENEKANFKLPPGLGHTSMTIYKKVIRKVYDKERGFEIIDALHEHPAVTAPVVLKRLKQKDEEWRRAQREWNKVWRELEQKVFFKSLDHLGLTFKQADKKLLTTKQLIS
